Laboratory results published in ChEMBL document CHEMBL5724801, “EUbOPEN Chemogenomics Library - Multiplex” (2024).
A number of entries come with more than one value. The other results are left out here. The source may hold further records. Results that share an entry are repeated measurements (runs, samples, wells, individuals or studies).

How the values were obtained:
Assay type in all cases: toxicity, cell-based
Fibroblast = test: Multiplex assay against human fibroblast
Summary of the method: (§1)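 Live cells were stained at seeding with Hoechst33342, BioTracker Green Microtubule Cytoskeleton Dye, MitoTracker Red and Annexin V Alexa Fluor 680. Following compound addition, they were imaged on a CQ1 microscope at 37°C and 5% CO2 and gated by CellPathfinder machine learning into Hoechst high-intensity objects or normal cells, with normal cells split into healthy, pyknosed or fragmented nuclei and pyknosed cells into mitotic or apoptotic. Tubulin, mitochondrial-mass and membrane-permeability phenotypes are per cents of healthy-nucleus cells.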

HEK-293T = test: Multiplex assay against HEK293T; conditions: human; summary of the method: as §1
U2OS = test: Multiplex assay against U2OS; conditions: human; summary of the method: as §1
[1] = 12 h, 1 µM, compound concentration 1 uM
[2] = 12 h, 10 µM, compound concentration 10 uM
[3] = 24 h, 1 µM, compound concentration 1 uM
[4] = 24 h, 10 µM, compound concentration 10 uM
[5] = 48 h, 10 µM, compound concentration 10 uM
[6] = 48 h, 1 µM, compound concentration 1 uM

## CC(C)CNc1nc(N2CCN(CC3CCCOC3)CC2)ncc1C(=O)NCc1ccccc1 (stereo not given)
Fibroblast; [1]
  Population Mitotic Cells (%): 66% and 19.78%
  Population Tubulin-Different-Phenotype (%): 14.29% and 70.97%
Fibroblast; [2]
  Population Membrane Permeable-Phenotype (%): 7.69% and 26.32%
  Population Mitotic Cells (%): 60.32% and 12.75%
Fibroblast; [3]
  Population Fragmented Nuclei (%): 27.52% and 8.51%
  Population Mitotic Cells (%): 67.39% and 18.42%
Fibroblast; [4]
  Population Membrane Permeable-Phenotype (%): 2.78% and 35.14%
Fibroblast; [5]
  Population Membrane Permeable-Phenotype (%): 2.38% and 20%
HEK-293T; [1]
  Population Healthy Nuclei (%): 44.16% and 13.99%
  Population Mitochondria Different-Phenotype (%): 35% and 10%
HEK-293T; [2]
  Population Healthy Nuclei (%): 30.36% and 8.03%
HEK-293T; [3]
  Population Healthy Nuclei (%): 63.91% and 19.74%
  Total Cell Count: 497 and 152
HEK-293T; [4]
  Population Healthy Nuclei (%): 42.94% and 14.18%
HEK-293T; [6]
  Population Pyknosed Nuclei (%): 15.52% and 48.42%
  Population Tubulin-Different-Phenotype (%): 3.69% and 50.59%
  Total Cell Count: 973 and 190
U2OS; [1]
  Population Mitochondria Different-Phenotype (%): 1.24% and 35%
U2OS; [3]
  Population Mitochondria Different-Phenotype (%): 1.99% and 35.85%
  Total Cell Count: 467 and 139
U2OS; [6]
  Population Mitochondria Different-Phenotype (%): 0.73% and 17.99%
  Total Cell Count: 793 and 173

## COc1cc(/C=C(\C#N)C(=O)Nc2nnc(C(F)(F)F)s2)ccc1OCc1ccc(C(F)(F)F)cc1C(F)(F)F
Fibroblast; [1]
  Population Apoptotic (%): 2.5% and 35%
  Population Fragmented Nuclei (%): 21.43% and 5.94%
Fibroblast; [5]
  Population Apoptotic (%): 0% and 50%
  Population Tubulin-Different-Phenotype (%): 4.74% and 18.27%
HEK-293T; [1]
  Population Healthy Nuclei (%): 53.56% and 12.08%
  Population Tubulin-Different-Phenotype (%): 6.96% and 38.89%
HEK-293T; [2]
  Population Healthy Nuclei (%): 56.57% and 16.31%
  Population Tubulin-Different-Phenotype (%): 5.95% and 26.09%
HEK-293T; [4]
  Population Mitochondria Different-Phenotype (%): 15.79% and 3.8%
HEK-293T; [6]
  Population Pyknosed Nuclei (%): 12.42% and 40.72%
  Population Tubulin-Different-Phenotype (%): 2.04% and 51.85%
  Total Cell Count: 1088 and 197
HEK-293T; [5]
  Population Apoptotic (%): 11.21% and 36.73%
  Population Tubulin-Different-Phenotype (%): 0.8% and 18.55%
  Total Cell Count: 1266 and 284
U2OS; [6]
  Total Cell Count: 1038 and 316

## CN(C)Cc1cccc(NC(=C2C(=O)Nc3cc(C(=O)N(C)C)ccc32)c2ccccc2)c1
Fibroblast; [1]
  Population Apoptotic (%): 8.93% and 32.35%
Fibroblast; [3]
  Population Apoptotic (%): 6.9% and 25%
Fibroblast; [4]
  Population Fragmented Nuclei (%): 14.92% and 4.36%
Fibroblast; [6]
  Population Mitochondria Different-Phenotype (%): 18.86% and 3.59%
HEK-293T; [1]
  Population Fragmented Nuclei (%): 20.28% and 1.4%
  Population Healthy Nuclei (%): 47.64% and 13.29%
  Population Tubulin-Different-Phenotype (%): 6.93% and 36.84%
HEK-293T; [2]
  Population Healthy Nuclei (%): 50.65% and 13.79%
HEK-293T; [3]
  Population Fragmented Nuclei (%): 16.72% and 3.09%
  Population Pyknosed Nuclei (%): 14.63% and 65.46%
HEK-293T; [4]
  Population Healthy Nuclei (%): 68.75% and 22.67%
HEK-293T; [6]
  Population Apoptotic (%): 1.9% and 20.24%
  Population Pyknosed Nuclei (%): 9.47% and 36.84%
  Population Tubulin-Different-Phenotype (%): 3.1% and 40.3%
  Total Cell Count: 1110 and 231
HEK-293T; [5]
  Population Tubulin-Different-Phenotype (%): 7.61% and 64.79%
  Total Cell Count: 560 and 150
U2OS; [2]
  Population Mitochondria Different-Phenotype (%): 5.45% and 48.44%
U2OS; [3]
  Population Mitochondria Different-Phenotype (%): 0.39% and 11.93%
U2OS; [4]
  Population Mitochondria Different-Phenotype (%): 5.98% and 64.08%
U2OS; [6]
  Total Cell Count: 1000 and 330
U2OS; [5]
  Population Membrane Permeable-Phenotype (%): 11.11% and 34.55%

## O=C(NCc1cccc(O)c1)Nc1nc(-c2ccncc2)cs1
Fibroblast; [1]
  Population Fragmented Nuclei (%): 20.69% and 4.3%
Fibroblast; [3]
  Population Fragmented Nuclei (%): 17.51% and 5.05%
Fibroblast; [6]
  Population Mitochondria Different-Phenotype (%): 23.73% and 4.76%
Fibroblast; [5]
  Population Fragmented Nuclei (%): 12.11% and 1.35%
  Population Tubulin-Different-Phenotype (%): 6.63% and 28.02%
HEK-293T; [1]
  Population Tubulin-Different-Phenotype (%): 5.53% and 50%
  Total Cell Count: 412 and 128
HEK-293T; [2]
  Population Tubulin-Different-Phenotype (%): 11.11% and 40.3%
HEK-293T; [3]
  Total Cell Count: 476 and 120
HEK-293T; [6]
  Population Tubulin-Different-Phenotype (%): 0.56% and 26.73%
  Total Cell Count: 619 and 149
U2OS; [2]
  Population Mitochondria Different-Phenotype (%): 0.65% and 15.48%
  Total Cell Count: 378 and 115
U2OS; [4]
  Population Mitochondria Different-Phenotype (%): 0.52% and 17.78%
  Total Cell Count: 463 and 133
U2OS; [6]
  Total Cell Count: 969 and 307
U2OS; [5]
  Total Cell Count: 670 and 163

## O=C(Nc1cc(C(F)(F)F)ccc1N1CCCCC1)c1ccncc1
Fibroblast; [1]
  Population Apoptotic (%): 7.41% and 24.32%
Fibroblast; [6]
  Population Tubulin-Different-Phenotype (%): 6.32% and 22.73%
Fibroblast; [5]
  Population Apoptotic (%): 38.89% and 9.09%
HEK-293T; [1]
  Population Healthy Nuclei (%): 54.49% and 12.93%
  Population Tubulin-Different-Phenotype (%): 3.98% and 42.11%
HEK-293T; [3]
  Total Cell Count: 559 and 165
HEK-293T; [6]
  Population Tubulin-Different-Phenotype (%): 1.68% and 30%
  Total Cell Count: 1326 and 227
HEK-293T; [5]
  Population Tubulin-Different-Phenotype (%): 7.26% and 41.5%
U2OS; [2]
  Population Mitochondria Different-Phenotype (%): 1.28% and 23.68%
U2OS; [4]
  Population Mitochondria Different-Phenotype (%): 0.59% and 15.75%
  Total Cell Count: 587 and 183
U2OS; [5]
  Population Mitochondria Different-Phenotype (%): 0.44% and 11.26%
  Total Cell Count: 1047 and 294

## Cc1sc2c(c1C)C(c1ccc(Cl)cc1)=N[C@@H](CC(=O)NCCCCCCCCNC(=O)COc1cccc3c1C(=O)N(C1CCC(=O)NC1=O)C3=O)c1nnc(C)n1-2 (stereo not given in full)
Fibroblast; [1]
  Population Fragmented Nuclei (%): 10% and 34%
  Population Membrane Permeable-Phenotype (%): 1% and 23%
  Population Mitochondria Different-Phenotype (%): 4% and 23%
Fibroblast; [3]
  Population Membrane Permeable-Phenotype (%): 3% and 16%
  Population Mitochondria Different-Phenotype (%): 3% and 20%
Fibroblast; [4]
  Population Membrane Permeable-Phenotype (%): 3% and 17%
Fibroblast; [6]
  Population Hoechst High Intensity Objects (%): 27% and 8%
  Population Membrane Permeable-Phenotype (%): 0% and 27%
Fibroblast; [5]
  Population Mitotic Cells (%): 13% and 42%
HEK-293T; [1]
  Population Hoechst High Intensity Objects (%): 9% and 30%
HEK-293T; [3]
  Population Hoechst High Intensity Objects (%): 6% and 30%
HEK-293T; [4]
  Population Hoechst High Intensity Objects (%): 12% and 39%
HEK-293T; [6]
  Population Hoechst High Intensity Objects (%): 2% and 15%
U2OS; [1]
  Population Fragmented Nuclei (%): 43% and 13%
U2OS; [2]
  Population Membrane Permeable-Phenotype (%): 2% and 17%
U2OS; [3]
  Population Fragmented Nuclei (%): 42% and 12%
U2OS; [4]
  Population Membrane Permeable-Phenotype (%): 4% and 21%
  Population Tubulin-Different-Phenotype (%): 2% and 14%

## Nc1nccc(-c2ccn3c(N)nccc23)n1
Fibroblast; [1]
  Population Fragmented Nuclei (%): 15.53% and 3.21%
Fibroblast; [6]
  Population Tubulin-Different-Phenotype (%): 4.57% and 18.62%
Fibroblast; [5]
  Population Mitochondria Different-Phenotype (%): 11.21% and 0.92%
  Population Tubulin-Different-Phenotype (%): 5.14% and 19.72%
HEK-293T; [1]
  Population Tubulin-Different-Phenotype (%): 4.2% and 33.33%
HEK-293T; [2]
  Population Tubulin-Different-Phenotype (%): 5.15% and 20.59%
HEK-293T; [3]
  Total Cell Count: 471 and 144
HEK-293T; [6]
  Population Pyknosed Nuclei (%): 5.39% and 32.21%
  Population Tubulin-Different-Phenotype (%): 2.41% and 38.95%
  Total Cell Count: 929 and 150
HEK-293T; [5]
  Population Tubulin-Different-Phenotype (%): 1.31% and 28.87%
  Total Cell Count: 536 and 143
U2OS; [1]
  Total Cell Count: 439 and 138
U2OS; [3]
  Total Cell Count: 586 and 175
U2OS; [6]
  Total Cell Count: 1017 and 265
U2OS; [5]
  Total Cell Count: 1003 and 290

## COC[C@@H](CC(C)C)NC1=N/C(=C\c2ccc3ncsc3c2)C(=O)N1C
Fibroblast; [2]
  Population Apoptotic (%): 12.16% and 48.48%
Fibroblast; [4]
  Population Mitochondria Different-Phenotype (%): 3.54% and 16.3%
Fibroblast; [6]
  Population Tubulin-Different-Phenotype (%): 11.39% and 39.37%
HEK-293T; [1]
  Population Mitochondria Different-Phenotype (%): 34.03% and 4.88%
HEK-293T; [3]
  Population Pyknosed Nuclei (%): 17.7% and 54.82%
HEK-293T; [6]
  Population Pyknosed Nuclei (%): 6.01% and 35.56%
  Population Tubulin-Different-Phenotype (%): 2.63% and 50.68%
  Total Cell Count: 510 and 147
HEK-293T; [5]
  Population Apoptotic (%): 78.72% and 21.57%
  Population Mitotic Cells (%): 21.28% and 78.43%
U2OS; [2]
  Population Healthy Nuclei (%): 49.11% and 12.53%
  Population Mitochondria Different-Phenotype (%): 0.33% and 24.11%
U2OS; [4]
  Population Apoptotic (%): 8.33% and 25%
  Population Healthy Nuclei (%): 42.5% and 10.27%
  Population Mitochondria Different-Phenotype (%): 1.28% and 22.22%

## CN1C[C@H](C(=O)N[C@]2(C)O[C@@]3(O)[C@@H]4CCCN4C(=O)[C@H](Cc4ccccc4)N3C2=O)C[C@@H]2c3cccc4[nH]cc(c34)C[C@H]21.CS(=O)(=O)O [DIHYDROERGOTAMINE MESYLATE]
Fibroblast; [2]
  Population Tubulin-Different-Phenotype (%): 8% and 42%
Fibroblast; [4]
  Population Tubulin-Different-Phenotype (%): 15% and 46%
U2OS; [2]
  Population Mitotic Cells (%): 28% and 0%

## Cc1c(CC(=O)O)c2cccnc2n1Cc1ccc(S(C)(=O)=O)cc1C(F)(F)F [FEVIPIPRANT]
Fibroblast; [1]
  Population Membrane Permeable-Phenotype (%): 1% and 13%
U2OS; [6]
  Population Mitotic Cells (%): 34% and 9%

## COC(=O)c1ccc2c(c1)NC(=O)/C2=C(\Nc1ccc(N(C)C(=O)CN2CCN(C)CC2)cc1)c1ccccc1 [NINTEDANIB]
Fibroblast; [6]
  Population Mitochondria Different-Phenotype (%): 14.77% and 4.4%
Fibroblast; [5]
  Population Pyknosed Nuclei (%): 27.42% and 7.49%
U2OS; [2]
  Population Mitochondria Different-Phenotype (%): 5.07% and 26.67%
U2OS; [3]
  Population Mitochondria Different-Phenotype (%): 0.21% and 10.29%
  Total Cell Count: 518 and 172
U2OS; [4]
  Population Mitochondria Different-Phenotype (%): 9.84% and 44%
U2OS; [6]
  Total Cell Count: 856 and 248
U2OS; [5]
  Total Cell Count: 422 and 132

## CCCN1CCC[C@@H]2Cc3n[nH]cc3C[C@H]21.Cl [QUINPIROLE HYDROCHLORIDE]
Fibroblast; [3]
  Population Tubulin-Different-Phenotype (%): 13% and 41%
U2OS; [2]
  Population Mitotic Cells (%): 41% and 0%

## Cc1c(Cc2ccc3ccccc3n2)c2cc(F)ccc2n1CC(=O)O [TIMAPIPRANT]
Fibroblast; [3]
  Population Fragmented Nuclei (%): 9% and 30%
U2OS; [1]
  Total Cell Count: 298 and 94
U2OS; [3]
  Total Cell Count: 371 and 117
U2OS; [4]
  Population Mitotic Cells (%): 5% and 27%
U2OS; [6]
  Total Cell Count: 536 and 168
